In the antibiotic and cytotoxicity screens of Wong et al. (2023):
The list shows a part of the results.

Experiments:
HSkMC = human skeletal muscle cells; test: cytotoxicity call (relative viability < 0.9); conditions: 10 µM
HepG2 = test: cytotoxicity call (relative viability < 0.9); conditions: 10 µM
S. aureus RN4220 = test: growth inhibition call (relative growth <= 0.2); conditions: 50 µM

| Compound | cytotoxicity call (HSkMC) | cytotoxicity call (HepG2) | growth inhibition call (S. aureus RN4220) |
| --- | --- | --- | --- |
| C[C@@H]1CN([C@@H](C)CO)C(=O)CCCn2nncc2CO[C@@H]1CN(C)C(=O)Nc1cccc(C(F)(F)F)c1 | inactive | inactive | inactive |
| CN1CCN(C(=O)CC#N)CC1 | inactive | inactive | inactive |
| CC(O)C(=O)[O-].[NH4+] (stereo not drawn) | inactive | inactive | inactive |
| O=C(C[C@@H]1CC=CC[C@@H](NC(=O)OCC2c3ccccc3-c3ccccc32)C(=O)OC[C@H](Cc2ccccc2)NC1=O)N[C@H](CO)Cc1ccccc1 | inactive | inactive | inactive |
| CS(=O)(=O)N1C[C@H](NC(=O)C2CC2)[C@H]2OCCC[C@H]21 | inactive | inactive | inactive |
| COc1ccc(S(=O)(=O)N(C)C[C@H]2Oc3ccc(NS(=O)(=O)c4ccc(C)cc4)cc3C(=O)N([C@H](C)CO)C[C@H]2C)cc1 | inactive | inactive | inactive |
| O=C(C[C@H]1CC[C@@H]2[C@H](COC[C@@H](O)CN2S(=O)(=O)c2ccccc2)O1)N[C@@H]1CCN(Cc2ccccc2)C1 | inactive | inactive | inactive |
| C[C@@H]1CCCCO[C@@H](CN(C)C(=O)C2CCCCC2)[C@H](C)CN([C@@H](C)CO)C(=O)c2cc(NC(=O)CCC(F)(F)F)ccc2O1 | inactive | inactive | inactive |
| COc1ccc(CN(C)C[C@@H]2OCCCC[C@@H](C)Oc3ccc(NC(=O)c4ccncc4)cc3C(=O)N([C@@H](C)CO)C[C@H]2C)cc1 | inactive | inactive | inactive |
| Cc1cc2c(cc1C)CSC(c1ccccc1)SC2 | inactive | inactive | inactive |
| Cc1nc(=O)c2cccc(O)c2[nH]1 | inactive | inactive | inactive |
| COc1ccc(S(=O)(=O)N(C)C[C@@H]2Oc3ccc(NS(=O)(=O)c4ccc(C)cc4)cc3CC(=O)N([C@H](C)CO)C[C@H]2C)cc1 | inactive | inactive | inactive |
| CCn1c(=O)cc(N2CCC(C)CC2)[nH]c1=O | inactive | inactive | inactive |
| COc1cccc(S(=O)(=O)N(C)C[C@H]2Oc3cc(Br)ccc3S(=O)(=O)N([C@@H](C)CO)C[C@H]2C)c1 | inactive | inactive | inactive |
| COc1ccc(CN(C)C[C@H]2OCCCC[C@@H](C)Oc3ccc(NC(=O)Nc4ccc(C(F)(F)F)cc4)cc3C(=O)N([C@H](C)CO)C[C@@H]2C)cc1 | active | active | inactive |
| CC(C)NC(=O)Nc1ccc2c(c1)C(=O)N([C@@H](C)CO)C[C@@H](C)[C@H](CN(C)C(=O)Nc1ccc(C(F)(F)F)cc1)OCCCC[C@H](C)O2 | inactive | inactive | inactive |
| C[C@H](CO)N1C[C@H](C)[C@H](CN(C)S(=O)(=O)c2cn(C)cn2)Oc2ccc(NS(=O)(=O)c3ccc(F)cc3)cc2C1=O | inactive | inactive | inactive |
| O=C(c1cccnc1)N1CCOCC1 | inactive | active | inactive |
| C[C@@H]1CN([C@H](C)CO)C(=O)c2cccc(NS(C)(=O)=O)c2O[C@@H]1CN(C)S(C)(=O)=O | inactive | inactive | inactive |
| Cc1ccc(S(=O)(=O)Nc2ccc3c(c2)CC(=O)N([C@H](C)CO)C[C@H](C)[C@@H](CN(C)Cc2ccncc2)O3)cc1 | inactive | inactive | inactive |
| CC(=O)NCc1nnnn1C1CCCCC1 | inactive | inactive | inactive |

| Compound | cytotoxicity call (HSkMC) | cytotoxicity call (HepG2) | growth inhibition call (S. aureus RN4220) |
| --- | --- | --- | --- |
| C[C@@H]1CCCCO[C@H](CN(C)Cc2ccc(C(F)(F)F)cc2)[C@@H](C)CN([C@@H](C)CO)C(=O)c2cc(NC(=O)CCC(F)(F)F)ccc2O1 | inactive | inactive | inactive |
| C[C@@H]1CN([C@@H](C)CO)C(=O)Cc2cc(NC(=O)Nc3ccc(C(F)(F)F)cc3)ccc2O[C@H]1CN(C)Cc1ccc(C(F)(F)F)cc1 | active | active | inactive |
| Cc1ccc(S(=O)(=O)N(C)C[C@H]2Oc3ccc(NC(=O)CCN4CCOCC4)cc3C(=O)N([C@@H](C)CO)C[C@@H]2C)cc1 | inactive | active | inactive |
| O=C(C[C@H]1CC[C@H]2[C@@H](COC[C@H](O)CN2C(=O)c2ccccc2)O1)N1CCOCC1 | inactive | inactive | inactive |
| Cc1noc(C)c1S(=O)(=O)N(C)C[C@@H]1Oc2ccc(NC(=O)NC(C)C)cc2CC(=O)N([C@H](C)CO)C[C@H]1C | inactive | inactive | inactive |
| C[C@@H]1CN([C@H](C)CO)S(=O)(=O)c2ccc(C3=CCCCC3)cc2O[C@H]1CN(C)S(=O)(=O)c1cn(C)cn1 | inactive | inactive | inactive |
| COC(=O)NCCOc1nc(N(C)C)nc(N(C)C)n1 | inactive | inactive | inactive |
| O=C(Cn1c(=O)n(-c2ccccc2)c(=O)n1CC(=O)N1CCOCC1)N1CCOCC1 | inactive | inactive | inactive |
| C[C@@H]1CN([C@@H](C)CO)C(=O)c2cccc(NS(=O)(=O)c3ccc(Cl)cc3)c2O[C@H]1CN(C)Cc1ccc(-c2ccccc2)cc1 | inactive | inactive | inactive |
| C[C@@H]1CN([C@@H](C)CO)C(=O)Cc2cc(NC(=O)Cn3cnnn3)ccc2O[C@H]1CN(C)S(=O)(=O)c1cn(C)cn1 | inactive | inactive | inactive |
| C[C@@H]1CCCCO[C@H](CN(C)CC2CCCCC2)[C@@H](C)CN([C@H](C)CO)C(=O)c2cc(NS(=O)(=O)c3ccccc3)ccc2O1 | inactive | inactive | inactive |
| COCC#Cc1cnc2c(c1)C(=O)N([C@H](C)CO)C[C@@H](C)[C@@H](CN(C)S(=O)(=O)c1ccccc1)O2 | inactive | inactive | inactive |
| O=C1OC2(c3ccccc31)c1cc(I)c(O)c(I)c1Oc1c2cc(I)c(O)c1I | active | active | active |
| CO[C@@H]1CC[C@@H]2[C@H]1OCCN2C(=O)N(C)C | inactive | inactive | inactive |
| Oc1c(I)cc(I)c2cccnc12 | inactive | active | inactive |
| C[C@@H]1CN([C@H](C)CO)C(=O)c2c(c3ccccc3n2C)-c2ccccc2CO[C@@H]1CN(C)S(=O)(=O)c1ccc(C(F)(F)F)cc1 | inactive | inactive | inactive |
| C[C@@H]1CN([C@H](C)CO)S(=O)(=O)c2ccc(-c3cccnc3)cc2O[C@H]1CN(C)C(=O)NC1CCCCC1 | inactive | inactive | inactive |
| Cc1cc(=O)oc2cc(O)ccc12 | inactive | inactive | inactive |
| C[C@H](CO)N1C[C@H](C)[C@H](CN(C)S(C)(=O)=O)Oc2ncc(Br)cc2C1=O | inactive | inactive | inactive |
| CC(C)NC(=O)[C@@]1(C)c2ccccc2C(=O)N(Cc2cc(C(F)(F)F)cc(C(F)(F)F)c2)[C@H]1c1ccc(CO)cc1 | inactive | inactive | inactive |
| C[C@H](CO)N1C[C@H](C)[C@H](CN(C)S(=O)(=O)c2ccc(F)cc2)Oc2ccc(NC(=O)CCCN(C)C)cc2C1=O | inactive | inactive | inactive |

| Compound | cytotoxicity call (HSkMC) | cytotoxicity call (HepG2) | growth inhibition call (S. aureus RN4220) |
| --- | --- | --- | --- |
| CCCCCc1c2c(cc(O)c1C(=O)O)OC(=O)c1c(cc(OC)cc1C(=O)CCCC)O2 | inactive | inactive | active |
| COCC(=O)N1CC[C@]2(CC1)CN([C@@H](CO)c1c2c2ccc(cc2n1C)OC)C(=O)CN1CCOCC1 | inactive | inactive | inactive |
| COc1ccc(CN(CCN(C)C)c2ncccn2)cc1.Cl | inactive | inactive | inactive |
| Cc1noc(C)c1NC(=O)N(C)C[C@H]1Oc2cc(C#CCN(C)C)ccc2S(=O)(=O)N([C@@H](C)CO)C[C@H]1C | inactive | inactive | inactive |
| CN1CCN(C(=O)CNS(=O)(=O)c2ccccc2)CC1 | inactive | inactive | inactive |
| CCN(CC)C[C@@H](O)CN | inactive | inactive | inactive |
| C[C@H](CO)N1C[C@H](C)[C@H](CN(C)C(=O)Nc2cccc3ccccc23)OCc2cnnn2CCCC1=O | inactive | inactive | inactive |
| CC1(C)SC2C(NC(=O)C(N)c3ccc(O)cc3)C(=O)N2C1C(=O)O (stereo not drawn) | inactive | inactive | active |
| C[C@@H]1CN([C@H](C)CO)C(=O)Cc2cc(NC(=O)Nc3ccccc3)ccc2O[C@H]1CN(C)Cc1ccc(Oc2ccccc2)cc1 | inactive | active | inactive |
| C[C@@H]1CN([C@H](C)CO)C(=O)c2cccc(NC(=O)CCCCCC(=O)Nc3ccccc3N)c2O[C@H]1CN(C)Cc1ccc(Oc2ccccc2)cc1 | inactive | inactive | inactive |
| C[C@H](CO)N1C[C@H](C)[C@@H](CN(C)S(=O)(=O)c2ccccc2)Oc2ccc(NS(=O)(=O)c3cccs3)cc2CC1=O | inactive | inactive | inactive |
| NC(=O)CN1CCOCC1 | inactive | inactive | inactive |
| C[C@@H]1CN([C@H](C)CO)C(=O)c2cc(C#CC3(O)CCCC3)cnc2O[C@H]1CN(C)S(=O)(=O)c1cccc(F)c1 | inactive | inactive | inactive |
| C[C@H]1CN([C@@H](C)CO)C(=O)c2cccc(NC(=O)c3ccc(-c4nccs4)cc3)c2O[C@@H]1CN(C)C(=O)Nc1cccc2ccccc12 | inactive | inactive | inactive |
| Cc1ccc(S(=O)(=O)N(C)C[C@H]2OCCCC[C@@H](C)Oc3ccc(NC(=O)Cc4ccccc4)cc3C(=O)N([C@H](C)CO)C[C@@H]2C)cc1 | inactive | inactive | inactive |
| COc1ccc(NC(=O)Nc2ccc3c(c2)C(=O)N([C@@H](C)CO)C[C@H](C)[C@@H](CN(C)C(=O)CCC(F)(F)F)OCCCC[C@@H](C)O3)cc1 | inactive | inactive | inactive |
| Cc1ccc(S(=O)(=O)Nc2ccc3c(c2)CC(=O)N([C@H](C)CO)C[C@@H](C)[C@H](CN(C)Cc2ccc(C(F)(F)F)cc2)O3)cc1 | inactive | inactive | inactive |
| C[C@H](CO)N1C[C@H](C)[C@H](CN(C)Cc2ccc(C(=O)O)cc2)Oc2c(NS(C)(=O)=O)cccc2C1=O | inactive | inactive | inactive |
| CC(C)CC#Cc1cnc2c(c1)C(=O)N([C@H](C)CO)C[C@H](C)[C@H](CN(C)S(=O)(=O)c1ccccc1)O2 | inactive | inactive | inactive |
